# Results taken from PubChem BioAssay AID686978 (National Center for Advancing Translational Sciences (NCATS), 2013).
# In all, about 420,000 compounds went through this assay and about 64,000 (15%) were called active. The shares of active, inactive and inconclusive entries below differ from those in the screen. Calls come from the whole dose curve; as a rule, active = well fitted inhibition curve with a large enough effect; inconclusive = small, poorly fitted or top-dose-only effect; inactive = flat fitted curve, though single readings scatter. No potency is given beside an inconclusive call; the fits are too rough.
# Assay: qHTS for Inhibitors of human tyrosyl-DNA phosphodiesterase 1 (TDP1): qHTS in cells in absence of CPT; note: nearly all actives have a fitted effect of over 55% in size
# Settings: DT40 Tdp1-/- hTDP1 cells, no CPT, ATP luminescence, 48 h; activity change, negative = growth inhibition: at 46.2 µM (top of the series) unless noted
# In short: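 Seeded 400 DT40-hTDP1 cells/well (vehicle DMSO, no 20 nM CPT); pinned compounds; ≥48 hr at 37 °C; CellTiter-Glo luminescence as viability measure.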
# % is set by controls: 0 for no effect and ±100 for the full control effect; potency is the fitted concentration of half-maximal effect; tags give direction and shape of the fitted curve.
Compound,Potency,"activity change, negative = growth inhibition"
COc1ccc(-c2ocnc2C(=O)N2CCN(C(c3ccccc3)c3ccccc3)CC2)cc1,"inconclusive [inhibitor, single point]",–
NC(=S)Nc1cccc(F)c1,–,inactive: -5.56%
COc1cc(C(=O)Nc2cccc(S(=O)(=O)N3CCCC3)c2)c([N+](=O)[O-])cc1OC,"inconclusive [inhibitor, partial curve]",–
O=C(CSc1ncc(C(F)(F)F)cc1Cl)N1CCN(S(=O)(=O)c2ccc3ccccc3c2)CC1,"inconclusive [inhibitor, single point]",–
Cc1ccccc1COC(=O)CCC1=NS(=O)(=O)c2ccccc2N1,–,inactive: 14.7%
COc1cccc(-c2cnc3c(NC=O)cc(-c4cccc(NC(C)=O)c4)cn23)c1,active: 20.6 µM,–
Cc1cccc2sc(NNC(=O)c3ccc4c(c3)OCCO4)nc12,"inconclusive [inhibitor, single point]",–
O=C(C[n+]1ccccc1)NNc1ccccc1,–,inactive: -15.5%
O=C(Nc1ccn(-c2ccccc2)n1)c1ccccc1Br,"inconclusive [inhibitor, single point]",–
C/C(=N\NC(=O)CSCc1ccccc1Cl)c1cccc(NC(=O)c2ccccc2)c1,"inconclusive [inhibitor, single point]",–
COc1ccc(C(=O)NCCOc2cccc(OC)c2)cc1,"inconclusive [inhibitor, partial curve, poor fit]",–
COc1ccc(-c2nnn(-c3ccc(Cl)cc3Cl)c2N)cc1,–,inconclusive: -35.9% [inhibitor]
NC(=O)c1cccc(-c2coc3c(C(=O)NCCc4ccccc4)cccc23)c1,"inconclusive [inhibitor, single point]",–
COc1ccc(N(S(=O)(=O)c2ccccc2)S(=O)(=O)c2ccccc2)c(N)c1,"inconclusive [inhibitor, single point]",–
COc1cc(-c2noc(-c3ccc(NCc4ccccc4)c([N+](=O)[O-])c3)n2)cc(OC)c1OC,"inconclusive [inhibitor, full curve]",–
COc1ccc2oc(C(=O)OCC(=O)N(C)CC(=O)Nc3ccc(C)cc3)c(C)c2c1,"inconclusive [inhibitor, partial curve, poor fit]",–
COC(=O)c1ccc(NC(=S)NC(=O)c2c(Cl)cnn2C)cc1,–,inactive: -17.2%
O=C(CN(c1ccc(Br)cc1)S(=O)(=O)c1ccc(Cl)c([N+](=O)[O-])c1)NCCc1ccccc1,"inconclusive [inhibitor, full curve, poor fit]",–
Cc1cc(S(=O)(=O)N2CCC3(CC2)OCCN3S(=O)(=O)c2cccs2)ccc1F,–,inactive: -28.9%
COc1ccc(Cl)cc1NC(=O)c1sc(-n2nc(C)c(Cc3ccccc3)c2C)nc1C,–,inconclusive: -30.2% [inhibitor]
COc1cc(C(=O)Oc2cccc(C=O)c2)cc(OC)c1OC,"inconclusive [inhibitor, single point]",–
COc1ccc2nc(N3C(=O)CC(Cc4ccc(C)cc4)C3=O)sc2c1 (stereo unspecified),"inconclusive [inhibitor, single point]",–
Cn1cccc1/C=N/N1CCN(Cc2cccc3ccccc23)CC1,active: 13 µM,–
CCC(C)NC(=O)c1cc2c(=O)n(CC)c3ccccc3c2s1 (stereo unspecified),"inconclusive [inhibitor, single point]",–

Compound,Potency,"activity change, negative = growth inhibition"
Cc1cccc(NC(=O)C2Cc3ccccc3CN2C(=O)OCc2ccccc2)c1C (stereo unspecified),"inconclusive [inhibitor, single point]",–
COc1ccccc1CNC(=O)c1ccc2c(c1)N(Cc1cccc(C)c1)C(=O)c1ccccc1S2(=O)=O,–,inactive: -26.6%
Cc1ncc(CN2CCC(C(=O)Nc3cccc(-c4cscn4)c3)CC2)cn1,"inconclusive [inhibitor, partial curve, poor fit]",–
CCS(=O)(=O)N1CCN(c2ncnc3sc(C)c(C)c23)CC1,"inconclusive [inhibitor, single point]",–
O=C(Nc1ccccc1Cl)c1cc[n+]([O-])cc1,–,inconclusive: -30.2% [inhibitor]
CCN(Cc1cc(=O)n2ccsc2n1)c1cccc2ccccc12,"inconclusive [inhibitor, single point]",–
C=CCNC(=O)CSc1nnc(-c2ccccn2)n1Cc1ccccc1,–,inactive: -4.84%
CCCS(=O)(=O)N1CCCC(C(=O)Oc2ccc(OC)cc2)C1 (stereo unspecified),–,inactive: -26.7%
S=C(Nc1ccccc1)N1CCN(c2ccccc2)CC1,"inconclusive [inhibitor, partial curve]",–
CCn1c(=O)c2cc(C(=O)N(CCN(C)C)Cc3ccccc3)sc2c2ccccc21,active: 20.6 µM,–
O=C(CN1C(=O)NC2(CCCC2)C1=O)Nc1nc(-c2ccc(F)c(F)c2)cs1,"inconclusive [inhibitor, single point]",–
O=C(CN1CCN(C(=O)CN2C(=O)NC3(CCCC3)C2=O)CC1)Nc1cccc(F)c1,–,inactive: -0.0126%
C=CCN1C(=O)C(C)(C)N(C(=O)c2cccc([N+](=O)[O-])c2)c2ccccc21,"inconclusive [inhibitor, single point]",–
Cc1ccc(NC(=O)CCS(=O)(=O)c2ccccc2)cc1S(=O)(=O)N1CCCCCC1,"inconclusive [inhibitor, single point]",–
O=C(c1ccccc1[N+](=O)[O-])N1N=C(c2ccccc2)CC1(O)C(F)(F)F (stereo unspecified),"inconclusive [inhibitor, single point]",–
Fc1cccc(NC(=S)NNc2c3ccccc3nc3ccccc23)c1,active: 0.92 µM,–
CCCc1ccc(C(C)NC(=S)NC2CCCCC2)cc1 (stereo unspecified),"inconclusive [inhibitor, full curve]",–
COc1ccc(N2CCN(C(=O)COC(=O)c3ccccc3OCc3ccc(F)cc3)CC2)cc1,"inconclusive [inhibitor, single point]",–
Cc1nnc(SCc2ccccc2)c2cc3sccc3n12,"inconclusive [inhibitor, single point]",–
Cc1ccc(SCCN2CCC(C)CCC2=O)cc1 (stereo unspecified),"inconclusive [inhibitor, single point]",–
O=C(Nc1ccc(Nc2ccccc2)cc1)c1ccccc1,active: 20.6 µM,–
CCOc1cc(C(=O)N2CC(=O)Nc3ccc(C)cc3C2c2ccccc2)cc(OCC)c1OCC (stereo unspecified),active: 20.6 µM,–
CN(C)c1cc2c(cc1NC(=O)c1ccccc1Cl)n(C)c(=O)n2C,"inconclusive [inhibitor, single point]",–
COc1cccc(C2CC(c3cccc(NS(C)(=O)=O)c3)=NN2C(=O)c2ccccc2)c1OC (stereo unspecified),active: 20.6 µM,–

Compound,Potency,"activity change, negative = growth inhibition"
C=CCSc1nnc(NC(=O)CN2C(=O)NC3(CCCC3)C2=O)s1,–,inactive: 1.57%
COc1cccc(Nc2nnc(SCC(=O)N3CC(C)OC(C)C3)s2)c1 (stereo unspecified),"inconclusive [inhibitor, single point]",–
CC(C)C(OC(=O)CN1C(=O)COc2ccccc21)C(=O)NC1CCCCC1 (stereo unspecified),"inconclusive [inhibitor, single point]",–
CCOC(=O)CN1NC2(CCCCCCC2)NC1=S,–,inactive: 4.02%
CCOc1ccc(C/C(N)=N/n2cnnc2)cc1,"inconclusive [inhibitor, partial curve, poor fit]",–
Cc1ccccc1-c1cnc(C(O)c2c(C)ccc3ccccc23)[nH]1 (stereo unspecified),"inconclusive [inhibitor, single point]",–
CCN1CCN(c2ccc(N=Cc3ccccc3O)cc2)CC1,"inconclusive [inhibitor, single point]",–
NNC(=O)c1sccc1OCc1ccc(Cl)cc1Cl,"inconclusive [inhibitor, single point]",–
CCc1ccc(CN(Cc2ccco2)C(=O)c2ccc(OC)cc2)cc1,active: 23.1 µM,–
O=C(C1CCCCC1)N1CCc2ccccc21,"inconclusive [inhibitor, partial curve, poor fit]",–
O=S(=O)(Nc1cccc(-c2ccc(N3CCCC3)nn2)c1)c1ccccc1C(F)(F)F,–,inactive: -10.6%
NS(=O)(=O)c1ccc(CCNC(=O)C(=O)NCC2OCCN2S(=O)(=O)c2ccc(F)cc2)cc1 (stereo unspecified),–,inactive: 10.8%
CCCC1=Nc2cc(C(=O)NCCCN3CCOCC3)ccc2Sc2ccccc21,–,inactive: -20.8%
CCN(CC)c1nc(SCCOC(=O)Nc2ccccc2)nc(N(CC)CC)n1,"inconclusive [inhibitor, single point]",–
Cc1ccc(/C=N/NC(=O)Cn2cncn2)cc1,–,inactive: 2.56%
Cc1ccc(CNS(=O)(=O)/C=C/c2ccc3c(c2)OCO3)cc1,"inconclusive [inhibitor, single point]",–
Cc1[nH]n(-c2ccccc2)c(=O)c1C=Nc1cccc2cccnc12,active: 0.92 µM,–
O=C(NCCc1c[nH]c2ccccc12)C(=O)Nc1ccccc1,"inconclusive [inhibitor, partial curve]",–
O=C(O)C1CCC(CNS(=O)(=O)c2ccc(Br)cc2)CC1 (stereo unspecified),–,inactive: 18.6%
O=C(NCCN1C(=O)S/C(=C\c2ccc(Cl)cc2)C1=O)c1ccc(F)c(S(=O)(=O)N2CCOCC2)c1,active: 5.8 µM,–
CC(=O)N1c2ccc(S(=O)(=O)NCC3CCC(C(=O)Nc4ncccc4C)CC3)cc2CC1C (stereo unspecified),–,inactive: -2.8%
COc1ccc(N2C(=O)C(Cl)=C(Nc3ccccc3OC)C2=O)cc1,"inconclusive [inhibitor, single point]",–
COC(=O)c1ccc(NS(=O)(=O)c2ccc(-c3cc(C)no3)s2)cc1,"inconclusive [inhibitor, partial curve]",–
